# The other results are listed elsewhere or left out.
# B1: BT3172pd (Bacteroides thetaiotaomicron) (protein)
# chain: MLPLRAEHYYYKQISLKEGLPSNVRCILRDEQGFIWIGTKAGLGKFDGHQLKRYKHQANDPHSLLHNLIYQIAEDKQHNIWILTEKGIARYQQQSNNFTFPTDEEGNYITAYSFCLVPDGILFGGKDRIYKYSYKDSSLRLLQYFNANSFKITALSVWDSKTLLCCSRWTGLYLVDLQTGEHRRPPFDCGPEITSMITDSKNRIWIAPYSGGLRCYSRDGKLSASYTTHNSSLSNDIVLSLAEREEQLWIGTDGGGINILHPETGEISQLEYIPGRENYSLPANSILCLHNDYNNNVWAGSTCNGLISIREVSMKTYTDVVPGNDRGLSNGTVRSLYRQSPDSIWIGTDGGGINLFSPHTEKFTHYSSTWGDKVAFISGFTPGKLLISLFSKGVFVFNPATGEKQPFTIIDKETTTRLCNRGKSVNLYQNTPNTVLFLGDHIYQYHLKEKKFSTITEEEGKDIVGTLVPFDHQENLTYINDIKHIYELDDQTSRLKTVFECYTDTVISSVSHDEQGHFWIGSNFGLIHYDPVLKSRTLVPTNLFTEINMVLCDQKGKVWIGVDNMLFAYFIKEQKFVLFGESNGAIQNEYLPNARLVNEQGDAYIGGVKGMLRIDGQLLLNTSEMPELQLLDITINGESANHEWYNHPAKISVPWNSNISIRIMSREEDIFRQKIYRYQIEGLNNEYTESYNPELVIRSLLPGSYRIMASCTAKDGSWIPDQQVLELTVLPPWYRTHHHHHH
# Legend:
# Assay in all cases: glycan array binding signal (z-score within array); higher = stronger binding
# Settings in all cases: glycan notation: IUPAC condensed, linker removed
# [1] = target: Gal(b1-4)GlcNAc(b1-3)Gal(b1-4)GlcNAc(b1-2)[Gal(b1-4)GlcNAc(b1-3)Gal(b1-4)GlcNAc(b1-6)]Man(a1-6)[Gal(b1-4)GlcNAc(b1-3)Gal(b1-4)GlcNAc(b1-2)Man(a1-3)]Man(b1-4)GlcNAc(b1-4)GlcNAc
# Summary of the method: (§1)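 Glycan array binding is given as a within-array Z-score, which can be read as non-binding when negative. The arrays, 3228 of them, came from the Consortium for Functional Glycomics database and were retained only where the protein sequence was available. Z-scores were averaged across arrays of the same protein sequence at different concentrations or buffers and across linkers.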
# [2] = target: Gal(b1-4)GlcNAc(b1-3)Gal(b1-4)GlcNAc(b1-2)[Gal(b1-4)GlcNAc(b1-3)Gal(b1-4)GlcNAc(b1-6)]Man(a1-6)[Gal(b1-4)GlcNAc(b1-3)Gal(b1-4)GlcNAc(b1-2)Man(a1-3)]Man(b1-4)GlcNAc(b1-4)[Fuc(a1-6)]GlcNAc
# Summary of the method: as §1
# [3] = target: Gal(b1-4)GlcNAc(b1-3)Gal(b1-4)GlcNAc(b1-3)Gal(b1-4)GlcNAc
# Summary of the method: as §1
# [4] = target: Gal(b1-4)GlcNAc(b1-3)Gal(b1-4)GlcNAc(b1-3)Gal(b1-4)GlcNAc(b1-2)Man(a1-3)[Gal(b1-4)GlcNAc(b1-3)Gal(b1-4)GlcNAc(b1-3)Gal(b1-4)GlcNAc(b1-2)Man(a1-6)]Man(b1-4)GlcNAc(b1-4)GlcNAc
# Summary of the method: as §1
# [5] = target: Gal(b1-4)GlcNAc(b1-3)Gal(b1-4)GlcNAc(b1-3)Gal(b1-4)GlcNAc(b1-2)Man(a1-3)[Gal(b1-4)GlcNAc(b1-3)Gal(b1-4)GlcNAc(b1-3)Gal(b1-4)GlcNAc(b1-2)Man(a1-6)]Man(b1-4)GlcNAc(b1-4)[Fuc(a1-6)]GlcNAc
# Summary of the method: as §1
# [6] = target: Gal(b1-4)GlcNAc(b1-3)Gal(b1-4)GlcNAc(b1-3)Gal(b1-4)GlcNAc(b1-2)[Gal(b1-4)GlcNAc(b1-3)Gal(b1-4)GlcNAc(b1-3)Gal(b1-4)GlcNAc(b1-6)]Man(a1-6)[Gal(b1-4)GlcNAc(b1-3)Gal(b1-4)GlcNAc(b1-3)Gal(b1-4)GlcNAc(b1-2)Man(a1-3)]Man(b1-4)GlcNAc(b1-4)[Fuc(a1-6)]GlcNAc
# Summary of the method: as §1
# [7] = target: Gal(b1-4)GlcNAc(b1-3)Gal(b1-4)GlcNAc(b1-3)Gal(b1-4)GlcNAc(b1-3)Gal(b1-4)GlcNAc(b1-2)Man(a1-3)[Gal(b1-4)GlcNAc(b1-3)Gal(b1-4)GlcNAc(b1-3)Gal(b1-4)GlcNAc(b1-3)Gal(b1-4)GlcNAc(b1-2)Man(a1-6)]Man(b1-4)GlcNAc(b1-4)GlcNAc
# Summary of the method: as §1
# [8] = target: Gal(b1-4)GlcNAc(b1-3)Gal(b1-4)GlcNAc(b1-3)Gal(b1-4)GlcNAc(b1-3)Gal(b1-4)GlcNAc(b1-2)Man(a1-3)[Gal(b1-4)GlcNAc(b1-3)Gal(b1-4)GlcNAc(b1-3)Gal(b1-4)GlcNAc(b1-3)Gal(b1-4)GlcNAc(b1-2)Man(a1-6)]Man(b1-4)GlcNAc(b1-4)[Fuc(a1-6)]GlcNAc
# Summary of the method: as §1
# [9] = target: Gal(b1-4)GlcNAc(b1-3)Gal(b1-4)GlcNAc(b1-3)Gal(b1-4)GlcNAc(b1-3)Gal(b1-4)GlcNAc(b1-2)[Gal(b1-4)GlcNAc(b1-3)Gal(b1-4)GlcNAc(b1-3)Gal(b1-4)GlcNAc(b1-3)Gal(b1-4)GlcNAc(b1-6)]Man(a1-6)[Gal(b1-4)GlcNAc(b1-3)Gal(b1-4)GlcNAc(b1-3)Gal(b1-4)GlcNAc(b1-3)Gal(b1-4)GlcNAc(b1-2)Man(a1-3)]Man(b1-4)GlcNAc(b1-4)[Fuc(a1-6)]GlcNAc
# Summary of the method: as §1
# [10] = target: Gal(b1-4)GlcNAc(b1-3)Gal(b1-4)GlcNAc(b1-3)Gal(b1-4)GlcNAc(b1-3)Gal(b1-4)GlcNAc(b1-3)Gal(b1-4)GlcNAc(b1-2)Man(a1-3)[Gal(b1-4)GlcNAc(b1-3)Gal(b1-4)GlcNAc(b1-3)Gal(b1-4)GlcNAc(b1-3)Gal(b1-4)GlcNAc(b1-3)Gal(b1-4)GlcNAc(b1-2)Man(a1-6)]Man(b1-4)GlcNAc(b1-4)GlcNAc
# Summary of the method: as §1
# [11] = target: Gal(b1-4)GlcNAc(b1-3)Gal(b1-4)GlcNAc(b1-3)Gal(b1-4)GlcNAc(b1-3)Gal(b1-4)GlcNAc(b1-3)Gal(b1-4)GlcNAc(b1-2)Man(a1-3)[Gal(b1-4)GlcNAc(b1-3)Gal(b1-4)GlcNAc(b1-3)Gal(b1-4)GlcNAc(b1-3)Gal(b1-4)GlcNAc(b1-3)Gal(b1-4)GlcNAc(b1-2)Man(a1-6)]Man(b1-4)GlcNAc(b1-4)[Fuc(a1-6)]GlcNAc
# Summary of the method: as §1
# [12] = target: Gal(b1-4)GlcNAc(b1-3)Gal(b1-4)GlcNAc(b1-3)Gal(b1-4)GlcNAc(b1-3)Gal(b1-4)GlcNAc(b1-3)Gal(b1-4)GlcNAc(b1-2)[Gal(b1-4)GlcNAc(b1-3)Gal(b1-4)GlcNAc(b1-3)Gal(b1-4)GlcNAc(b1-3)Gal(b1-4)GlcNAc(b1-3)Gal(b1-4)GlcNAc(b1-6)]Man(a1-6)[Gal(b1-4)GlcNAc(b1-3)Gal(b1-4)GlcNAc(b1-3)Gal(b1-4)GlcNAc(b1-3)Gal(b1-4)GlcNAc(b1-3)Gal(b1-4)GlcNAc(b1-2)Man(a1-3)]Man(b1-4)GlcNAc(b1-4)[Fuc(a1-6)]GlcNAc
# Summary of the method: as §1
# [13] = target: Gal(b1-4)GlcNAc(b1-3)Gal(b1-4)GlcNAc(b1-3)Gal(b1-4)GlcNAc(b1-3)Gal(b1-4)GlcNAc(b1-3)Gal(b1-4)GlcNAc(b1-3)Gal(b1-4)GlcNAc(b1-2)Man(a1-3)[Gal(b1-4)GlcNAc(b1-3)Gal(b1-4)GlcNAc(b1-3)Gal(b1-4)GlcNAc(b1-3)Gal(b1-4)GlcNAc(b1-3)Gal(b1-4)GlcNAc(b1-3)Gal(b1-4)GlcNAc(b1-2)Man(a1-6)]Man(b1-4)GlcNAc(b1-4)GlcNAc
# Summary of the method: as §1
# [14] = target: Gal(b1-4)GlcNAc(b1-3)Gal(b1-4)GlcNAc(b1-3)GalNAc
# Summary of the method: as §1
# [15] = target: Gal(b1-4)GlcNAc(b1-3)Gal(b1-4)GlcNAc(b1-3)[Gal(b1-4)GlcNAc(b1-3)Gal(b1-4)GlcNAc(b1-6)]GalNAc
# Summary of the method: as §1
# [16] = target: Gal(b1-4)GlcNAc(b1-3)Gal(b1-4)GlcNAc(b1-6)[Gal(b1-3)]GalNAc
# Summary of the method: as §1
# [17] = target: Gal(b1-4)GlcNAc(b1-3)Gal(b1-4)[Fuc(a1-3)]GlcNAc(b1-3)Gal(b1-4)[Fuc(a1-3)]GlcNAc
# Summary of the method: as §1
# [18] = target: Gal(b1-4)GlcNAc(b1-3)GalNAc
# Summary of the method: as §1
# [19] = target: Gal(b1-4)GlcNAc(b1-3)[Fuc(a1-3)GlcNAc(b1-6)]Gal(b1-4)Glc
# Summary of the method: as §1
# [20] = target: Gal(b1-4)GlcNAc(b1-3)[Gal(b1-4)GlcNAc(b1-6)]Gal(b1-4)GlcNAc
# Summary of the method: as §1
# [21] = target: Gal(b1-4)GlcNAc(b1-3)[GlcNAc(b1-6)]Gal(b1-4)GlcNAc
# Summary of the method: as §1
# [22] = target: Gal(b1-4)GlcNAc(b1-6)Gal(b1-4)GlcNAc
# Summary of the method: as §1
# [23] = target: Gal(b1-4)GlcNAc(b1-6)GalNAc
# Summary of the method: as §1
# [24] = target: Gal(b1-4)GlcNAc(b1-6)[Gal(b1-3)]GalNAc
# Summary of the method: as §1
# [25] = target: Gal(b1-4)GlcNAc(b1-6)[Gal(b1-4)GlcNAc(b1-3)]GalNAc
# Summary of the method: as §1
# [26] = target: Gal(b1-4)GlcNAc6P
# Summary of the method: as §1
# [27] = target: Gal(b1-6)Gal
# Summary of the method: as §1
# [28] = target: Gal3S(b1-3)GalNAc
# Summary of the method: as §1
# [29] = target: Gal3S(b1-3)GlcNAc
# Summary of the method: as §1
# [30] = target: Gal3S(b1-3)[Fuc(a1-4)]GlcNAc
# Summary of the method: as §1
binder,measurement,setting,value
B1,glycan array binding signal (z-score),[1],0.067
same,glycan array binding signal (z-score),[2],-0.402
same,glycan array binding signal (z-score),[3],-0.392
same,glycan array binding signal (z-score),[4],-0.375
same,glycan array binding signal (z-score),[5],-0.608
same,glycan array binding signal (z-score),[6],-0.545
same,glycan array binding signal (z-score),[7],1.06
same,glycan array binding signal (z-score),[8],-0.405
same,glycan array binding signal (z-score),[9],0.273
same,glycan array binding signal (z-score),[10],5.07
same,glycan array binding signal (z-score),[11],0.028
same,glycan array binding signal (z-score),[12],0.669
same,glycan array binding signal (z-score),[13],-0.144
same,glycan array binding signal (z-score),[14],-0.264
same,glycan array binding signal (z-score),[15],-0.344
same,glycan array binding signal (z-score),[16],-0.435
same,glycan array binding signal (z-score),[17],-0.565
same,glycan array binding signal (z-score),[18],0.072
same,glycan array binding signal (z-score),[19],-3.26
same,glycan array binding signal (z-score),[20],1.31
same,glycan array binding signal (z-score),[21],-0.406
same,glycan array binding signal (z-score),[22],-0.464
same,glycan array binding signal (z-score),[23],1.4
same,glycan array binding signal (z-score),[24],-1.05
same,glycan array binding signal (z-score),[25],-0.42
same,glycan array binding signal (z-score),[26],-0.486
same,glycan array binding signal (z-score),[27],-0.085
same,glycan array binding signal (z-score),[28],0.067
same,glycan array binding signal (z-score),[29],-1.38
same,glycan array binding signal (z-score),[30],-0.189
